Reference: PubChem BioAssay AID686978 (National Center for Advancing Translational Sciences (NCATS), 2013)
The campaign covered roughly 420,000 compounds. About 64,000 (15%) were called active. This list was built around the results that the source calls inconclusive (neither active nor inactive); the mix of calls is not that of the screen. Calls come from the whole dose curve; as a rule, active = well fitted inhibition curve with a large enough effect; inconclusive = small, poorly fitted or top-dose-only effect; inactive = flat fitted curve, though single readings scatter. No potency is given beside an inconclusive call; the fits are too rough.

Test: qHTS for Inhibitors of human tyrosyl-DNA phosphodiesterase 1 (TDP1): qHTS in cells in absence of CPT; note: nearly all actives have a fitted effect of over 55% in size
Settings: DT40 Tdp1-/- hTDP1 cells, no CPT, ATP luminescence, 48 h; series mostly up to 46.2 µM
Outline: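 Chicken DT40 Tdp1-/- cells stably complemented with human TDP1 were seeded at 400 cells/well with DMSO in place of 20 nM camptothecin. After compound pinning, cells grew at least 48 hr at 37 °C; viability read by CellTiter-Glo luminescence.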
Potency is the fitted concentration of half-maximal effect; tags give direction and shape of the fitted curve.

Question: With `CCOc1ccc(-c2nc3c(c(SCC(=O)N4CCCCC4)n2)Cc2cc(C)ccc2O3)cc1` as the compound, how does the Potency read?
Answer: The Potency was inconclusive [inhibitor, full curve, poor fit].

Question: With `COc1cc2nc(N(C)C)c(CNCc3nonc3C)cc2c(OC)c1OC` as the compound, how does the Potency read?
Answer: Its Potency is “inactive”.

Question: Which Potency does the source give for `O=C(Nc1ccccc1C(F)(F)F)c1c(F)cccc1Cl` here?
Answer: The Potency was “inactive”.

Question: For `Cc1noc(/C=C/N(C)C)c1S(=O)(=O)N1CCCC(C(=O)N2CCCCC2)C1` (stereo not given), which Potency is on record?
Answer: The Potency was inconclusive [inhibitor, single point].

Question: With `COC(=O)c1c(-c2cccs2)csc1NC(=O)CN1CCOCC1` as the compound, how does the Potency read?
Answer: The Potency was inconclusive [inhibitor, partial curve].

Question: Which Potency does the source give for `COc1ccc(N2CCN(CCCNC(=O)Nc3ccccc3Cl)CC2)cc1` here?
Answer: The Potency was active: 20.6 µM.

Question: With `O=C(c1cccc(S(=O)(=O)N2CCCCC2)c1)N1CCN(c2ccccc2)CC1` as the compound, how does the Potency read?
Answer: Its Potency is inconclusive [inhibitor, single point].

Question: Which Potency does the source give for `Cc1ccc(S(=O)(=O)N2CCN(C(=O)C3CSC4(C)CCC(=O)N34)CC2)cc1C` (stereo not given) here?
Answer: Its Potency is inconclusive [inhibitor, single point].

Question: Which Potency does the source give for `CCOc1ccc(C2=C(C=C(C#N)C#N)C(c3ccccc3)c3ccccc3O2)cc1` (stereo not given) here?
Answer: The Potency was inconclusive [inhibitor, single point].

Question: Which Potency does the source give for `CCOC(=O)c1c(C)[nH]c(C(=O)OC(C)C(=O)Nc2ccccc2OC)c1C` (stereo not given) here?
Answer: Its Potency is inconclusive [inhibitor, single point].

Question: With `Cc1ccc(C)c(Cn2c3ccccc3c3cnn(CC(=O)NCCCN4CCOCC4)c(=O)c32)c1` as the compound, how does the Potency read?
Answer: Its Potency is inconclusive [inhibitor, single point].

Question: With `Clc1ccccc1NCSC1=NCCS1` as the compound, how does the Potency read?
Answer: The Potency was “inactive”.

Question: With `COC(=O)[C@H](Cc1ccc(O)cc1)NCCCn1cnc(C(=O)Nc2ccc(C)c(C)c2)n1` as the compound, how does the Potency read?
Answer: The Potency was inconclusive [inhibitor, single point].

Question: For `CCN1CCN(c2ccc(NC(=O)c3cccnc3)cc2Cl)CC1`, which Potency is on record?
Answer: Its Potency is “inactive”.

Question: For `Cc1[nH]c2ccccc2c1C(=O)/C=C/c1ccccc1Cl`, which Potency is on record?
Answer: The Potency was inconclusive [inhibitor, single point].

Question: With `CCOc1ccc(C(c2c(C)[nH][nH]c2=O)c2c(C)[nH][nH]c2=O)cc1OCC` as the compound, how does the Potency read?
Answer: The Potency was inconclusive [inhibitor, single point].

Question: For `NC(=O)c1ccccc1NC(=O)Nc1cccc(Cl)c1`, which Potency is on record?
Answer: Its Potency is inconclusive [inhibitor, single point].

Question: With `O=C(CN1C(=O)c2ccccc2S1(=O)=O)Nc1ccc(S(=O)(=O)N2CCCCC2)cc1` as the compound, how does the Potency read?
Answer: Its Potency is inconclusive [inhibitor, single point].

Question: Which Potency does the source give for `CCCCc1nc2ccccc2c(NC(=O)CNC(C)(C)C)c1CCC` here?
Answer: The Potency was inconclusive [inhibitor, single point].

Question: For `CC(C)(C)OC(=O)N[C@@H](C(=O)OC(C)(C)C)c1ccc2ccccc2c1`, which Potency is on record?
Answer: The Potency was active: 23.1 µM.

Question: Which Potency does the source give for `C[C@@H](C(=O)Nc1ccc2ccccc2c1)[C@@H]1C[C@@]1(C)[C@@H](NC(=O)OCc1ccccc1)c1ccccc1` here?
Answer: Its Potency is active: 16.4 µM.

Question: For `Cc1nnsc1S(=O)c1ccc(Cl)c(Cl)c1` (stereo not given), which Potency is on record?
Answer: The Potency was active: 14.6 µM.

Question: For `Cc1ccc(S(=O)(=O)N(C)C)cc1NC(=O)CSc1nnnn1-c1ccc(O)cc1`, which Potency is on record?
Answer: Its Potency is inconclusive [inhibitor, single point].

Question: Which Potency does the source give for `CCOc1ccccc1NC(=O)Nc1cc(S(=O)(=O)N(C)C)ccc1C` here?
Answer: Its Potency is “inactive”.

Question: With `O=C(CCCN1C(=O)/C(=C\c2ccccc2)SC1=S)Nc1ccc(O)cc1C(=O)O` as the compound, how does the Potency read?
Answer: The Potency was “inactive”.

Question: Which Potency does the source give for `O=C(O)c1cccc(NC(CNS(=O)(=O)c2ccc(Cl)cc2)c2ccccc2)c1` (stereo not given) here?
Answer: Its Potency is “inactive”.

Question: For `O=C(CCC(=O)Nc1ccccc1Cl)NNC(=O)NC1CCCCC1`, which Potency is on record?
Answer: The Potency was “inactive”.

Question: With `O=C(NC1CC(=O)N(c2ccccc2)C1)c1ccc(S(=O)(=O)N2CCOCC2)cc1` (stereo not given) as the compound, how does the Potency read?
Answer: The Potency was “inactive”.

Question: Which Potency does the source give for `CCCCn1c(SCC(=O)Nc2ccc3c(c2)OCCO3)nnc1C(CC)N(C)C` (stereo not given) here?
Answer: Its Potency is “inactive”.

Question: Which Potency does the source give for `Brc1ccc(-c2ccc(CNCCSc3nnnn3-c3ccccc3)o2)cc1` here?
Answer: Its Potency is inconclusive [inhibitor, single point].

Question: For `CC1(OC(=O)CCc2ccccc2)C(=O)C=C2C=C(c3ccc(C#N)cc3)N(C3CCCCC3)C=C2C1=O` (stereo not given), which Potency is on record?
Answer: Its Potency is inconclusive [inhibitor, single point].

Question: For `COc1ccccc1CCn1cnc(Cc2cccc(F)c2)c1C(C)C`, which Potency is on record?
Answer: The Potency was inconclusive [inhibitor, single point].

Question: Which Potency does the source give for `CCCCOC(=O)N1CCOCCOCCN(C(=O)OCCCC)CCOCCOCC1` here?
Answer: Its Potency is inconclusive [inhibitor, single point].

Question: Which Potency does the source give for `Cc1ccc(CNc2ncnc(N)c2[N+](=O)[O-])cc1` here?
Answer: Its Potency is inconclusive [inhibitor, single point].

Question: With `COc1ccccc1N1CCN(c2ccc3cc(S(=O)(=O)N4CCCCC4)ccc3n2)CC1` as the compound, how does the Potency read?
Answer: Its Potency is active: 7.31 µM.

Question: With `COC(=O)C1=CN(c2ccc3c(c2)OCO3)C(N)=C(C#N)C1c1ccccc1` (stereo not given) as the compound, how does the Potency read?
Answer: The Potency was active: 5.8 µM.

Question: For `Cc1cccc(C)c1NC(=O)c1nc(S(=O)(=O)Cc2ccccc2)ncc1Cl`, which Potency is on record?
Answer: The Potency was active: 2.91 µM.

Question: Which Potency does the source give for `O=C(NC1CCCC1)C(c1ccsc1)N(Cc1ccco1)C(=O)Cc1cccs1` (stereo not given) here?
Answer: The Potency was inconclusive [inhibitor, single point].

Question: For `O=C(CN1C(=O)COc2ccc(Cl)cc21)Nc1nccs1`, which Potency is on record?
Answer: Its Potency is “inactive”.

Question: With `CCc1ccc(/C=C(\Cl)c2nc3cc(Cl)ccc3c(=O)[nH]2)cc1` as the compound, how does the Potency read?
Answer: Its Potency is inconclusive [inhibitor, single point].

Question: For `CCOc1ccc(CCN2C(=O)C(=O)N([C@@H](CC(C)C)CN3CCC[C@@H]3CN3C(=O)C(=O)NC[C@@H]3CC(C)C)C[C@@H]2Cc2ccccc2)cc1`, which Potency is on record?
Answer: Its Potency is inconclusive [inhibitor, single point].

Question: For `O=C(CSc1nnc(C2CC2)n1C1CC1)c1ccc(F)c(F)c1`, which Potency is on record?
Answer: Its Potency is inconclusive [inhibitor, single point].

Question: Which Potency does the source give for `CC(C)OC(=O)c1cc2c(ccn2C)n1CC(=O)N(Cc1ccccc1)c1ccccc1` here?
Answer: The Potency was active: 16.4 µM.

Question: For `CC(N=C1NC(C)(C)Cc2ccccc21)C(=O)O` (stereo not given), which Potency is on record?
Answer: Its Potency is “inactive”.

Question: With `Cc1cc(C)cc(OCC(=O)N(Cc2ccccc2)C2CCS(=O)(=O)C2)c1` (stereo not given) as the compound, how does the Potency read?
Answer: Its Potency is “inactive”.
